Results: the supplement of paper PMC11417369
± gives the standard deviation of the averaged measurements. This is one part of the list.

Each sequence was assayed on PfAP2-EXP AP2 domain (GST-tagged) (assay: gcPBM binding intensity (ln(normalized median fluorescence intensity)); higher = stronger DNA binding).
In short: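 GST-tagged P. falciparum DNA-binding domains, expressed in E. coli (about 25 μg on average), were applied for 1 h to an Agilent 4 × 180k array of primer-extended double-stranded 36-bp intergenic genomic probes plus negative controls. The binding buffer was 1× PBS with 1% milk, 0.2 mg/ml BSA, 0.5% salmon testes DNA and 0.03% Triton X-100. Bound protein was detected with Alexa488 anti-GST antibody and scanned at 488 nm. Binding intensity is the highest Masliner-normalised natural-log median intensity across replicate spots of either probe orientation.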

Sequence | gcPBM binding intensity (ln)
TAAAAATAAATAAATACATGCACCAAAAATAAATTT [TGCATGCA_site801] | 9.15 ± 0.16
ATTGTTAAATATAATACACACGTTTTTAAAAATATA [CACACA_site5239] | 8.48 ± 0.47
ATTGCCATTGTTAATGCATGTAACAATTCAGCTCAT [TGCATGCA_site56] | 8.88 ± 0.3
AAAATTATTTAGTAAGTGCAAAAAAAAAAAAAAAAA | 8.24 ± 0.45
AATTTGATTATAAATTGTACATATATATATTAAAAG [XGTACX_site5461] | 8.56 ± 0.4
AAGAAAAAAAAAAAAACACACATATATTTATTTATA [CACACA_site7042] | 8.06 ± 0.47
GAAAGAAAAAATGATGAATAGAGATCAAATCTATAT [XGTACX_negctrl_site28] | 8.47 ± 0.24
TATACACATAGACACACACACAAAAAAAAAAAAAAA [CACACA_site6338] | 8.25 ± 0.54
TGACATATTATTAGGTGGTCACGTCTCCACGTCAAG [XGTACX_site7943] | 8.54 ± 0.36
TAATTGTACACATGCACACACAAATATTATAGATGT [CACACA_site6528] | 8.99 ± 0.37
TTGAGAAAAATTAATGGTACACATATTATAAGTATA [XGTACX_site6539] | 8.59 ± 0.45
TGTATAACATTTAGGTGTACAATTATATATAATATA [XGTACX_site8131] | 8.51 ± 0.47
TTTTAAAAAAATATAATACACACCAAAAATATGCAC [CACACA_site2131] | 8.94 ± 0.21
AGTAAATTATATATCTGTACATATATATATGTGTAT [XGTACX_site5519] | 8.64 ± 0.35
AAAAATTCATTTTTATGTACGTACAAATTCTTCGTT [XGTACX_site2471] | 8.66 ± 0.26
ACTATATATATAAGTGCATGTTCATTATACCTAAAG [TGCATGCA_site696] | 8.75 ± 0.42
CTCACAAATGAATACACACAAACATATATATTTATA [CACACA_site1620] | 8.52 ± 0.49
AAAAAAATATAAATACGTACATATATATATATATAT [XGTACX_site432] | 10.2 ± 0.46
CTATTCTATTTTTATTGTACATATATATAATTTGAA [XGTACX_site389] | 8.41 ± 0.21
ACACATGAATATTGTAGTACGGCAATTAATATAATA [XGTACX_site4589] | 8.59 ± 0.38
ATATAATGGCTAAATAGTACAATATAATATTTTTTA [XGTACX_site8922] | 8.06 ± 0.35
TGGAATAATACGCGTACACACATATAAATATTAATA [CACACA_site6211] | 8.78 ± 0.38
AGAAAGGAAAAAACCTCACACATGCTTTTAATAGTA [CACACA_site4602] | 8.32 ± 0.49

Sequence | gcPBM binding intensity (ln)
AAATTCGTTATAAAAACATGCAACGATCAACATTGT [TGCATGCA_site844] | 8.64 ± 0.35
TTACTCTTTATATAATGTACATATATATATATATTA [XGTACX_site2624] | 8.63 ± 0.3
GTGTGGAGTTACAAAGAGGAGAACCTCACAGTAATC [CACACA_negctrl_site527] | 8.55 ± 0.35
TTTTTTATATTGTGATGTACAAATTTTAAAATGTAG [XGTACX_site1875] | 8.48 ± 0.18
ATATATATATATATAATACACACTTATGAAATGTCT [CACACA_site1827] | 10.2 ± 0.17
TTATGTGATAAAAAAAAAATACAACAAAGTTAAATA [GTGCAC_negctrl_site36] | 8.42 ± 0.41
TTACACATATTTTTAATTATTCTGAATTCAAAAAAA [CACACA_negctrl_site1706] | 8.18 ± 0.39
ATAATCATAAAATAAACACACATATATAAATATATT [CACACA_site276] | 8.27 ± 0.47
GTAATATTAAAATATACACACATAGAATATATATAT [CACACA_site4391] | 9.51 ± 0.14
GTATATATTTCCAGAAGTACTTATTTTTATGTATGT [XGTACX_site4079] | 8.8 ± 0.47
TGAAAAAAGAAAAATACACACATATAACATAATATA [CACACA_site7126] | 8.5 ± 0.52
AATCTATATTAATACACACACACATATATTTATATA [CACACA_site7732] | 8.55 ± 0.38
TTTATTTTGACAGATTGTACACTTTATACATGTTTT [XGTACX_site2356] | 8.8 ± 0.44
AAAACACGCGGACACACACACACACCCACCCATATA [CACACA_site8688] | 8.68 ± 0.48
TTTTAATATTTTGCCTGTACATAAAAGTGAGAAGAT [XGTACX_site2503] | 9.03 ± 0.3
TGATTACATATGATGTGTACCTAATTTTGTTTACAC [XGTACX_site7032] | 8.59 ± 0.29
AAAAATGCCAGAAAACGTACTCGGATTTTCTAATAT [XGTACX_site6552] | 8.45 ± 0.33
TTATATTTATTGATATGTACATATTATAATTAATTA [XGTACX_site586] | 8.54 ± 0.38
AAATAGTTCATAAAAAGTACAAAATTTTTATCCGTA [XGTACX_site2796] | 8.44 ± 0.41
ATCATTCATTTAACAACACACAACATATTTATCATA [CACACA_site1041] | 8.57 ± 0.35
TATAAAGGTTGGTACTGTACAATATAAGAAAAAAAA [XGTACX_site435] | 8.82 ± 0.47
TATATATTATATAAGAGTACATATAATTATAGTTTT [XGTACX_site5039] | 8.37 ± 0.33
ATAAAACAAGCAAATCGTACAAAAGGATAATATATA [XGTACX_site5592] | 8.9 ± 0.32

Sequence | gcPBM binding intensity (ln)
TTAGGTAGAAAAAAGACACACACATTATATATATAT [CACACA_site8016] | 9.75 ± 0.28
ATATATATTTAAGAGGGTACAAAAATTTATGAGCAT [XGTACX_site6156] | 8.78 ± 0.49
AAAAAAAAAAAAAACACACACACACCCATACCCATA [CACACA_site5577] | 8.61 ± 0.35
ATGTATGGTTTATATGTTCATTTGTTCACCTATTTA [CACACA_negctrl_site1533] | 8.95 ± 0.47
TCTTTGGTAATATATATGTATAAATATAAATATATA [CACACA_negctrl_site1566] | 8.16 ± 0.33
ATATATATATATGTTAGTACATAACAAGTGTGCATA [XGTACX_site1527] | 9.97 ± 0.22
TTTTTTGCTAAGTGTACACAAATGTTTATTAATTTA [CACACA_site5859] | 8.81 ± 0.35
GATAAAATGAGACCAGTGCATTATTAGTTGTACACC | 8.945 ± 0.078
TATACATATTTATACACACACACATATATTTATATA [CACACA_site6727] | 8.6 ± 0.49
TGTGCTTATCCTAACACACACAACATATAAGAAAAA [CACACA_site3319] | 8.63 ± 0.5
AAAAAATAAAAAATATGTACACATTCAAAATTTTAC [XGTACX_site8479] | 8.52 ± 0.35
ATATATATATATATATGTACATATTACATTACTTAT [XGTACX_site749] | 10.1 ± 0.27
AAAAAGAAAAAAAACACACACAAATATAAATAAATA [CACACA_site1183] | 8.6 ± 0.55
CAAATACACCAACACACACACACAAAAAAAAAAAAA [CACACA_site514] | 8.18 ± 0.53
TAAGTACGACTTGACACACATACACATATATATATA [CACACA_site1286] | 9.94 ± 0.22
ATTACCAACAGATCTTGTACATATTAAAGCATCTTA [XGTACX_site2361] | 8.46 ± 0.35
ATATACAAAGAAGCAGTGCATATTTTCTTATTTATG [GTGCAC_site9567] | 8.48 ± 0.33
TGAAAGAATAGAATGAGTACTAATTTAAATTACACT [XGTACX_site1120] | 8.47 ± 0.25
TTCTTTATATATTTTTGTACATATTTATTTTTAGAG [XGTACX_site6757] | 8.86 ± 0.33
TTGATTTCATTTTAAGTGCATAACTAATATTATATA [GTGCAC_site9713] | 8.54 ± 0.2
TAAAAAATAAAATACACACACATATATATATATATA [CACACA_site1323] | 10.2 ± 0.64
AAAAAAATTAAAGATTGTACTTGATTTTTCATTTTA [XGTACX_site6685] | 8.15 ± 0.37
TATATTCTTTTTTTAACACACAAAAAAAATAAAATA [CACACA_site1898] | 8.24 ± 0.47

Sequence | gcPBM binding intensity (ln)
GAGGGAAAAAATAATCGTACAAAGAAAAAAAAAAAT [XGTACX_site7361] | 8.64 ± 0.64
TTTTTTTCATAAATTAGGTAATGTCGCAGGGGGACA [TGCATGCA_negctrl_site556] | 9.54 ± 0.14
AAAGAATTGTATAAAAGTACATATTTGTTTGTTTTA [XGTACX_site7380] | 8.18 ± 0.52
AAAGAAAAAGAAAAAGAAAAAATAAAATAAAATAAA [CACACA_negctrl_site872] | 8.48 ± 0.45
CTTTAATATATTTAAGTGCAAAACTAATATGTAAAG | 8.69 ± 0.31
TATATATTATATATATGTACTTATTCATATATATAA [XGTACX_site3860] | 8.31 ± 0.22
TATTTAAAAACAAAAAGTACTAATATATATTTATAC [XGTACX_site1422] | 8.49 ± 0.52
AGTAGTATGGAGAAAAGTACATAGTATCTGATAACC [XGTACX_site2040] | 8.86 ± 0.38
GACTGAACAACATAATGTACATTTATAAGTATATAT [XGTACX_site3813] | 8.74 ± 0.41
TTTTCTATATAGTGTTGTACATTATTGTGTAAAAAT [XGTACX_site3223] | 8.61 ± 0.37
ATAAAATTGGAGCAAACACACAAGGTTGAAATTAAC [CACACA_site506] | 8.91 ± 0.55
ATATTTTATACTTGCACACAAAATATATTAAAATGG [CACACA_site5139] | 8.47 ± 0.4
TTATGTTGTAAATGCACACATACAAATACATATACA [CACACA_site1368] | 8.61 ± 0.2
TACAATATAAAATACACACGCACACCGAAAAAAAAA [CACACA_site5865] | 8.53 ± 0.4
AAGAAAAAAAAGATAATAATAATAATAATAAAATGA [TGCATGCA_negctrl_site398] | 8.53 ± 0.32
ATTTATTAAAAGAAATGTACAGAAAATGTTTGGAAT [XGTACX_site7187] | 8.86 ± 0.39
ATTTAATATCACAATATATTTTTTACCCTTATCAGC [CACACA_negctrl_site491] | 8.47 ± 0.47
TATATGGTATGTATTACACACATATCACATATATAT [CACACA_site3045] | 8.51 ± 0.41
GGAATGGTACATGATACACACACGCACATATAAATA [CACACA_site7581] | 8.76 ± 0.47
TGGTAAATTGAGAATCGTACATTAAAAAACATAAAA [XGTACX_site3253] | 8.69 ± 0.35
